Hit rate of the full screen: of about 150,000 compounds, about 540 (0.36%) showed an effect of 50% or more. The list shows a part of the results.
What follows are compounds tested on Plasmodium falciparum (assay: Primary screen in NF54 nanoGlo assay, in single point, at 2uM, 72h; a lower Z score goes with more inhibition). Conditions: timepoint 72 hour.
Type: functional, Erythrocyte
In the case of CCOC1CC1NC(=O)Cc1c(C)noc1C (stereo not drawn), the “% Inhibition” value is reported as -3% and the Z score is reported as 0.39.
For COc1ccc(NC(=O)c2cn3c4c(cc(Br)cc4c2=O)CC3)c(OC)c1, the “% Inhibition” value was -2% and the Z score was 0.26.
For COc1ccc(CN(C)S(=O)(=O)CC2CCCCC2)cn1, the “% Inhibition” value was -4% and the Z score was 0.73.
CC(C)n1nccc1S(=O)(=O)NCC1(Cn2ccnc2)CC1 was tested, and the “% Inhibition” value was -4% and the Z score was 0.79.
In the case of Cc1nn(-c2ccc3nnc(C)n3n2)c(C)c1CCC(=O)Nc1ccc(C(C)C)cc1, the “% Inhibition” value is reported as -2% and the Z score is reported as 0.3.
For Cc1nn(C)c2nc(NCCN3CCCCC3)sc12, the “% Inhibition” value was 9% and the Z score was -1.61.
With O=S(=O)(c1ccnc(N2Cc3ccc(Cl)cc3C2)c1)N1CCCC1 the “% Inhibition” value was -2% and the Z score was 0.33.
For O=c1cccnn1CC1CN(c2ncc(Br)cn2)C1, the “% Inhibition” value was -7% and the Z score was 1.02.
For Cc1n[nH]cc1CNC(=O)[C@H]1CC1(C)C, the “% Inhibition” value was 5% and the Z score was -0.84.
With CC1CC(C(=O)NCC2(CC(N)=O)CC2)CC(C)(C)C1 (stereo not drawn) the “% Inhibition” value was -4% and the Z score was 0.46.
In the case of OC[C@]1(F)CCN(c2ncc(Cn3cc(Br)cn3)s2)C1, the “% Inhibition” value is reported as -9% and the Z score is reported as 1.72.
For CCN1CC(=O)N[C@H]2CN(C(=O)CCN3CCCC3=O)CC[C@@H]2OCc2cccc(c2)Oc2cc(OC(C)C)cc(c2)C1=O, the “% Inhibition” value was 0% and the Z score was 0.07.
O=C(N1CCC(Cc2cc(F)ccc2F)CC1)[C@]1(CO)CCCO1 was tested, and the “% Inhibition” value was -3% and the Z score was 0.33.
For O=C(Nc1ccsc1)Nc1ncccc1F, the “% Inhibition” value was -7% and the Z score was 1.36.
In the case of Cc1cc(C(=O)N2CCOC[C@@H]2CC(=O)N2CCC(CO)CC2)c(C)o1, the “% Inhibition” value is reported as 5% and the Z score is reported as -0.7.
For Cc1nc(C)c(S(=O)(=O)NCCc2ccns2)s1, the “% Inhibition” value was -3% and the Z score was 0.55.
With Cc1ccc([C@@H]2CS(=O)(=O)CCN2)o1 the “% Inhibition” value was -5% and the Z score was 0.89.
In the case of O=C(N[C@@H]1CC[C@H]2CCOc3ccccc3C(=O)N3CCN(Cc4ccc(F)c(F)c4)C[C@H]3C(=O)NC[C@H]1O2)C1CCOCC1, the “% Inhibition” value is reported as -14% and the Z score is reported as 1.76.
With O=C(Nc1snnc1C(=O)N1CCOCC1)N1CCOCC1 the “% Inhibition” value was -4% and the Z score was 0.66.
In the case of Cc1sc(CCNC(=O)c2csnn2)nc1-c1ccccc1, the “% Inhibition” value is reported as -3% and the Z score is reported as 0.41.
In the case of CC(C)c1cnc(NC(=O)Nc2ccn(Cc3ccncc3)n2)s1, the “% Inhibition” value is reported as -11% and the Z score is reported as 1.13.
For COc1cccc(NC(=O)[C@@H]2Cc3[nH]cnc3C3(CCOCC3)N2)c1, the “% Inhibition” value was -3% and the Z score was 0.54.
With CS(=O)(=O)NCC1(CO)CC2(CCC2)C1 the “% Inhibition” value was -7% and the Z score was 0.73.
Cc1ccc(CNC(=O)c2ccc3nn(CC(=O)Nc4ccc5c(c4)OCCO5)c(=O)n3c2)cc1 was tested, and the “% Inhibition” value was -8% and the Z score was 0.72.
With COCCNC(=O)CN1C(=O)[C@@H]2CCCCN2c2ccc(C(=O)N3CCCCC3)cc21 the “% Inhibition” value was -13% and the Z score was 1.2.
With CC(=O)N1CCC[C@H]1C(=O)NCc1nc(C)cs1 the “% Inhibition” value was -19% and the Z score was 2.8.
With CN(C)C(=O)CO[C@H]1CCOC[C@H]1NC(=O)c1cccc2ccccc12 the “% Inhibition” value was -5% and the Z score was 0.96.
In the case of N#CCC[C@H](C#N)Cn1ccc(-c2cccs2)n1, the “% Inhibition” value is reported as -3% and the Z score is reported as 0.37.
Cc1ccc(N2CCN(CC(=O)NCCCn3ccnc3)C2=O)cc1 was tested, and the “% Inhibition” value was 0% and the Z score was 0.04.
With CCC(=O)N1CCc2cc(-c3ccc(C(=O)N4CCN(c5ccccn5)CC4)cc3)ccc21 the “% Inhibition” value was 3% and the Z score was -0.5.
For CC(C)(O)CN1CCc2c(cccc2NCc2cncs2)C1, the “% Inhibition” value was -9% and the Z score was 0.76.
In the case of CC(C)(C)C(=O)Nc1c(F)cccc1F, the “% Inhibition” value is reported as -4% and the Z score is reported as 0.49.
With O=C(O)c1cccc2c(-c3cccs3)n[nH]c12 the “% Inhibition” value was -1% and the Z score was 0.1.
Cc1cc(C(=O)Nc2c(C)cnn2Cc2cccc(Cl)c2)cc(=O)[nH]1 was tested, and the “% Inhibition” value was -10% and the Z score was 1.84.
O=C(Nc1cccs1)N1C2CCC1CC(F)C2 (stereo not drawn) was tested, and the “% Inhibition” value was -14% and the Z score was 1.65.
For CC(=O)c1ccc(C#N)cc1N[C@@H](C)CO, the “% Inhibition” value was -6% and the Z score was 1.13.
Cc1cc(C(=O)NCc2ccc(N3CCCCC3)nc2)on1 was tested, and the “% Inhibition” value was 12% and the Z score was -1.54.
With CS(=O)(=O)N1CCC[C@H]1c1ccc2c(c1)OCCCO2 the “% Inhibition” value was -14% and the Z score was 1.3.
For CCc1nnc([C@@H]2CC(F)(F)CN2C(=O)c2cocn2)o1, the “% Inhibition” value was -6% and the Z score was 0.95.
For O=C1CC(C2CCCCN2C(=O)CCc2ncc(-c3ccccc3)o2)CN1 (stereo not drawn), the “% Inhibition” value was -13% and the Z score was 2.52.
In the case of CCN(Cc1ncoc1C(C)C)c1ccc(F)c(F)c1, the “% Inhibition” value is reported as -9% and the Z score is reported as 0.75.
For COCC1(CNC(=O)Cc2ccsc2)CC1, the “% Inhibition” value was 3% and the Z score was -0.49.
With O=C1OC[C@H](CO)N1CCCOc1ccc(F)cc1 the “% Inhibition” value was -2% and the Z score was 0.34.
In the case of O=c1[nH]nc(-c2nc(-c3ccc4c(c3)OCO4)no2)c2ccccc12, the “% Inhibition” value is reported as -9% and the Z score is reported as 1.35.
